Measured values taken from the supplement of paper PMC10126150.
Values marked as one replicate rest on one cluster of the flow cell; about a third of the high ones do not repeat.

Each sequence was assayed on ATP (assay: switch fluorescence ratio, 500 uM ATP over buffer (Cy3 cluster intensity, sum of 5 cycles each) (fold (ratio)); higher = stronger signal-on switching upon ATP binding; sequences stand for … in TCGTCGGCAGCGTCAGATGTGTATAAGAGACAGTTTTTTTTTTTTTTTTTTTTTTTTT…TC). Conditions: aptamer strand: ATP DNA aptamer (quencher-CACCTGGGGGAGTATTGCGGAGGAAGG + anchor), 100 nM annealed; ATP concentration: 500 uM; one replicate.
Method in brief: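 Cy3-labelled switching-strand clusters on a modified Illumina MiSeq flow-cell were annealed to 100 nM quencher-labelled ATP aptamer and imaged first in selection buffer, then after 15 min with 500 uM ATP at 22 °C. NaOH stripping and re-annealing separated each of five buffer/ATP cycles, and clusters outside 100-1000 RFU were excluded. The fluorescence ratio sums target-cycle Cy3 intensity over buffer-cycle Cy3 intensity per cluster and averages it per switch-domain sequence.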
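Note: ATP exposure 15 min at 22 °C before imaging.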

| Sequence | switch fluorescence ratio |
| --- | --- |
| TTATGTGTGA | 0.991 |
| TTATGTTTTC | 1.47 |
| TTATTCGGCC | 0.988 |
| TTATTCGGG | 0.983 |
| TTATTCGTCG | 1.06 |
| TTATTGCA | 1.03 |
| TTATTGCGAA | 1.04 |
| TTCAAAACAA | 0.974 |
| TTCAAAAGTG | 0.967 |
| TTCAAAGCCT | 1.09 |
| TTCAACCTAC | 2.22 |
| TTCAAGTTTA | 1.03 |
| TTCAATGAAT | 1.03 |
| TTCAATGT | 0.951 |
| TTCAATTGGG | 1.05 |
| TTCACCCGTA | 1.06 |
| TTCACCCTGT | 0.985 |
| TTCACGGTTA | 1.06 |
| TTCACTGTAC | 1.56 |
| TTCAGACCTC | 1.02 |
| TTCAGAGGGC | 1.06 |
| TTCAGTCTAG | 1.06 |
| TTCAGTGAAA | 0.991 |
| TTCAGTGGTA | 0.957 |
| TTCAGTGTAC | 1.1 |
| TTCAGTTGTT | 1.02 |

| Sequence | switch fluorescence ratio |
| --- | --- |
| TTCAGTTTAT | 1.07 |
| TTCAGTTTTC | 1.08 |
| TTCATAAGGT | 1.01 |
| TTCATAGAGA | 0.979 |
| TTCATAGTAT | 0.969 |
| TTCATGCAGT | 1.01 |
| TTCATGGTGC | 1.21 |
| TTCATTGGCC | 0.98 |
| TTCATTTACC | 0.978 |
| TTCCAAGTTG | 1.01 |
| TTCCACGTTG | 1.02 |
| TTCCAGCGAA | 1.06 |
| TTCCAGCGGA | 1.01 |
| TTCCATAATG | 0.978 |
| TTCCCAGCGA | 2.68 |
| TTCCCAGGGT | 1.85 |
| TTCCCCAATT | 1.02 |
| TTCCCCTTTT | 0.968 |
| TTCCCGGGGC | 1.07 |
| TTCCCTACCT | 1.31 |
| TTCCGAAAGT | 1.06 |
| TTCCGCCTCG | 1.21 |
| TTCCGGAAGC | 2.94 |
| TTCCGGAATG | 2.42 |
| TTCCGGACCC | 1.08 |
| TTCCGGGGTC | 2.23 |

| Sequence | switch fluorescence ratio |
| --- | --- |
| TTCCGTAATT | 2.39 |
| TTCCGTATAA | 1.59 |
| TTCCGTCCAA | 1.04 |
| TTCCTAAGCA | 2.22 |
| TTCCTATTCC | 1.15 |
| TTCCTCCCTA | 3.18 |
| TTCCTCTACG | 1.42 |
| TTCCTCTGGG | 1.13 |
| TTCCTGAAC | 1.26 |
| TTCCTGGCTT | 1.02 |
| TTCCTTCAAT | 1.15 |
| TTCCTTTCAT | 0.98 |
| TTCGAAAACA | 1.03 |
| TTCGAGAGT | 1.03 |
| TTCGAGATTC | 0.969 |
| TTCGAGGCCT | 0.994 |
| TTCGAGGGAG | 1.16 |
| TTCGATATTA | 1 |
| TTCGATTCTC | 0.985 |
| TTCGCCGATT | 1.4 |
| TTCGCGAG | 1.04 |
| TTCGCGGGAT | 1.09 |
| TTCGCGGTGG | 0.871 |
| TTCGCTACCG | 0.996 |
| TTCGCTAGCA | 1.06 |
| TTCGGAAGA | 1.03 |

| Sequence | switch fluorescence ratio |
| --- | --- |
| TTCGGACTCC | 1.28 |
| TTCGGAGAG | 0.983 |
| TTCGGATTAA | 0.963 |
| TTCGGCAGC | 1.02 |
| TTCGGCAGGC | 1.2 |
| TTCGGCAGGG | 0.984 |
| TTCGGGAAGA | 1.1 |
| TTCGGGCTTA | 0.98 |
| TTCGGTA | 0.991 |
| TTCGGTGGGC | 0.959 |
| TTCGGTTAAT | 1.02 |
| TTCGGTTCAT | 1.13 |
| TTCGTAGTGC | 1.15 |
| TTCGTAGTTA | 1.04 |
| TTCGTCACCG | 0.977 |
| TTCGTCGAGG | 0.982 |
| TTCGTGAA | 0.978 |
| TTCGTGCAGT | 1.03 |
| TTCGTGCGCT | 0.983 |
| TTCGTGCTCT | 0.998 |
| TTCGTGGGAC | 1.03 |
| TTCGTGGGAT | 1.05 |
| TTCGTGTGAC | 1.19 |
| TTCGTGTTC | 0.963 |
| TTCGTTAATT | 0.995 |
| TTCGTTCACT | 0.992 |

| Sequence | switch fluorescence ratio |
| --- | --- |
| TTCGTTCAT | 0.971 |
| TTCGTTTTCA | 0.982 |
| TTCTAAGG | 1.01 |
| TTCTACGGTT | 1.05 |
| TTCTATAGCC | 1.01 |
| TTCTATAGGG | 0.993 |
| TTCTATATTC | 0.981 |
| TTCTATTGGC | 1.07 |
| TTCTATTTAT | 1.02 |
| TTCTCATGGC | 1.04 |
| TTCTCATTAT | 0.998 |
| TTCTCCTCAG | 1.31 |
| TTCTCGACGT | 1.03 |
| TTCTCGCCCT | 1.03 |
| TTCTCGCCGA | 1 |
| TTCTCGGTAT | 1.08 |
| TTCTCGGTTA | 0.959 |
| TTCTCTAGCA | 1.4 |
| TTCTCTCGGG | 1.05 |
| TTCTCTCTGC | 1.08 |
| TTCTGAAAAA | 0.953 |
| TTCTGAATCC | 0.99 |
| TTCTGATTTC | 1.06 |
| TTCTGCAAAA | 1.2 |
| TTCTGCCGAC | 1.06 |
| TTCTGCCGCG | 0.97 |

| Sequence | switch fluorescence ratio |
| --- | --- |
| TTCTGGCTGT | 0.991 |
| TTCTGGGCAG | 1.06 |
| TTCTGGTGGC | 0.989 |
| TTCTGTCAGG | 1.18 |
| TTCTGTGGTA | 0.98 |
| TTCTGTTAGG | 0.96 |
| TTCTGTTTCG | 0.998 |
| TTCTTAACCA | 1 |
| TTCTTCCTGG | 1.04 |
| TTCTTCGGG | 0.999 |
| TTCTTGGGGC | 0.986 |
| TTGAAAAGCT | 1.08 |
| TTGAAAAGTG | 1.26 |
| TTGAAAATAC | 1.05 |
| TTGAACACCG | 1.13 |
| TTGAACTGC | 1.02 |
| TTGAAGATGC | 1.03 |
| TTGAATACGA | 1.04 |
| TTGAATCCCT | 1.06 |
| TTGAATGTCG | 0.92 |
| TTGACACGCT | 1.23 |
| TTGACATAGC | 1.04 |
| TTGACATTCC | 2.24 |
| TTGACCGATG | 0.965 |
